Consider 102 compounds from PubChem BioAssay AID1625 (Sanford-Burnham Center for Chemical Genomics, 2009).

The structures appear in SMILES notation. Some of the results follow. Further columns of the screen follow, without active or inactive calls. Most of these compounds were active or inconclusive in the main read-out, so they are no random draw.

The nature of the assay: up-regulation of insulin promoter-GFP reporter – imaging, high-content screening, mouse beta cells (AID 1625).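 Note: total cells summed across four imaged fields per well.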 Conditions: MIN6 insulin promoter-GFP reporter, measured here: cytotoxicity, nuclei count, at 5 µM.
In turn, `CS(=O)(=O)c1nc(-c2ccccc2)cc(C(F)(F)F)n1` returned a cell count of 304 cells. The compound `Clc1ccc(-n2cc(-c3ccc(Br)cc3)[n+]3c2CCCCC3)cc1` came in with a cell count of 474 cells. Compound `COc1ccc2c(C)cc(SCC(=O)N(C)C3CCS(=O)(=O)C3)nc2c1` (configuration not stated) returned a cell count of 1160 cells. To `Cc1ccc(-c2nn(-c3ccccc3)c3[nH]c(=O)c(CNCc4ccccc4)cc23)cc1` belongs 423 cells; to `CC1CC(C)CN(S(=O)(=O)c2ccc(C(=O)NCCCn3ccnc3)cc2)C1` (configuration not stated), 311 cells; to `COc1ccc(C(=O)Nc2ccc(S(=O)(=O)N3CCCCC3C)cc2)c(OC)c1OC` (configuration not stated), 477 cells.

As to `CC(C)(C)C1C/C(=C/c2ccccn2)C(=O)/C(=C/c2ccccn2)C1` (configuration not stated), the cell count was found to be 470 cells. As for `COc1cc([C@@H]2c3cc4c(cc3[C@@H](NC3CCN(Cc5ccccc5)CC3)[C@H]3COC(=O)[C@H]23)OCO4)cc(OC)c1O`, the cell count was 218 cells. As to `CN1CC=C2C(C#N)=C(N)C(C#N)(C#N)[C@H](c3ccoc3)[C@H]2C1`, the cell count stood at 640 cells. `COc1ccc(-n2cc(-c3ccc(C)cc3)[n+]3c2SCC3)cc1` registered a cell count of 427 cells. In turn, `CCN1/C(=C\c2ccc3cc(C)ccc3[n+]2CC)Sc2cc(C)c(C)cc21` returned a cell count of 238 cells. Consider `CCc1cc2c(CN3CCN(CCO)CC3)cc(=O)oc2cc1O`, for which the cell count was 959 cells. `CC(Sc1ccc(Cl)cc1)C(=O)NCc1cccnc1` (configuration not stated) registered a cell count of 360 cells. Then `CCCN1C(=O)/C(=C/C=C2\N(CC)c3ccccc3C2(C)C)SC1=S`, with 986 cells; and `COc1cc(OC)c(-c2c3cc(O)c(=O)cc-3oc3cc(O)c(O)cc23)cc1OC`, with 1510 cells; and `CCCN1C(=O)S/C(=C/c2ccc(N3CCOCC3)o2)C1=O`, with 1010 cells. Then `CCCCn1c2c(c(=N)c3ccccc31)CCC2`, with 448 cells; and `CC(C)Cn1c(N)c(C(=O)COC(=O)C2CCCCC2)c(=O)n(C)c1=O`, with 485 cells. Regarding `COc1ccc(/C(O)=C/c2nc3ccc(C(=O)NCCc4cccc(C)c4)cc3[nH]c2=O)cc1OC`, the cell count is 1010 cells.

In turn, `COc1cccc(/C=N/NC(=O)CCn2cnc3ccccc32)c1` had a cell count of 1120 cells.

`Cc1cc(SCCOc2ccccc2)nc(N)n1` returned a cell count of 1390 cells. Turning to `Cc1cc(-c2cccs2)c2c(N)c(C(=O)c3ccc4c(c3)OCO4)sc2n1`, the cell count came to 1380 cells.

`Cc1cccc(NC(=O)/C=C/c2ccc([N+](=O)[O-])s2)c1`: the cell count was determined as 545 cells. Compound `COC(=O)c1sc2cc([N+](=O)[O-])cc(SCC(C)C)c2c1N` had a cell count of 386 cells. `CCOc1ccc(C(=O)C(CCC(CN(C)C)C(=O)c2ccc(OCC)cc2)CN(C)C)cc1` (configuration not stated): the cell count was 460 cells. `CN1C(=O)CC(N2CCN(Cc3ccc(Cl)cc3)CC2)C1=O` (configuration not stated) registered a cell count of 750 cells. To `CCCCC1(Cc2ccc([N+](=O)[O-])cc2)C(=O)N(c2ccccc2)N(c2ccccc2)C1=O` belongs 433 cells; to `CCOc1cccc(/C=N/NC(=S)Nc2cc(S(=O)(=O)N3CCOCC3)ccc2N2CCOCC2)c1O`, 458 cells. Then `OC(c1cc(-c2ccc(C(F)(F)F)cc2)nc(C(F)(F)F)c1)C1CCCCN1` (configuration not stated), with 483 cells. Compound `CCOC(=O)c1cc(C(=O)NCc2ccc(Cl)cc2Cl)nn1C` showed a cell count of 488 cells.

On to `O=C(CCS(=O)(=O)c1ccc(Br)cc1)Nc1cc(F)ccc1F`, for which the cell count is 284 cells. In turn, `COc1ccc(N(C(=O)Cc2cccs2)C2C=CS(=O)(=O)C2)cc1` (configuration not stated) gave a cell count of 1310 cells. Regarding `CCc1ccc2nc3sc(C(=O)N4CCc5ccccc54)c(N)c3cc2c1`, the cell count was 1050 cells.

On to `Cc1nnc(N/N=C/c2cc([N+](=O)[O-])c(N3CCC(C)CC3)cc2N2CCC(C)CC2)n1N`, for which the cell count turned out to be 230 cells. Then `COCCCNc1c2c3c(cccc3[nH]c1=O)C(=O)c1ccccc1-2`, with 812 cells. To `Cc1nn(-c2c(Cl)cc(Cl)cc2Cl)c(=O)c2ccccc12` belongs 908 cells; to `COc1cc2c(cc1OC)-c1nncn1C(C)(C)C2`, 1430 cells.

In turn, `COc1ccc(CS(=O)/C(Cl)=C(/Cl)C(=O)Nc2ccc(OC)nc2)cc1` (configuration not stated) had a cell count of 441 cells. For the compound `CC(NC(=O)/C(C#N)=C1\N=C(NC(=O)c2cccs2)c2ccccc21)c1ccccc1` (configuration not stated), the cell count came out at 1300 cells. The compound `CN1/C(=C/C=C(C#N)C#N)C=Cc2ccccc21` returned a cell count of 1450 cells. Consider `O=c1c2ccccc2nc(N/N=C/c2c(O)ccc3ccccc23)n1O`, for which the cell count was determined as 438 cells. To `COc1ccc(C(=O)C(CCC(CNC(C)(C)C)C(=O)c2ccc(OC)cc2)CNC(C)(C)C)cc1` (configuration not stated) belongs 445 cells; to `COc1ccc(CCNCc2csc3nc4ccccc4n23)cc1OC`, 197 cells. Then `Nc1c(C(=O)NC2CCCC2)sc2nc(-c3cccs3)ccc12`, with 1260 cells. Take `CN1/C(=C\C(=O)COC(=O)Cn2nnc(-c3ccccc3)n2)C(C)(C)c2ccccc21`: the cell count amounted to 363 cells. Take `CCCCNC(=S)NC(=O)c1ccc(Cl)cc1Cl`: the cell count turned out to be 1380 cells.

In the case of `Cc1ccc(Cn2c(SCC(C)C)nc3c2c(=O)[nH]c(=O)n3C)cc1`, the cell count stood at 497 cells. In the case of `CC(O)CNc1nc2c(c(=O)n(C)c(=O)n2C)n1Cc1cccc(Br)c1` (configuration not stated), the cell count turned out to be 419 cells.

As for `CN(C)c1cc[n+](CC(=O)c2ccc(-c3ccccc3)cc2)cc1`, the cell count came to 470 cells. `C=CCn1c(SCCOc2ccc(OC)cc2)nnc1C(C)NC(=O)Cc1ccc(OC)cc1` (configuration not stated) showed a cell count of 755 cells. Consider `O=[N+]([O-])c1ccc(Sc2cccc[n+]2[O-])c2nonc12`, for which the cell count was found to be 301 cells. Compound `CCC(C)(C)c1ccc(OCCCC[n+]2cccc(C)c2)c(C(C)(C)CC)c1` yielded a cell count of 212 cells. `O=[N+]([O-])c1ccc(N(c2ccccc2)c2ccccc2)cc1` showed a cell count of 980 cells.

In the case of `Cc1ccccc1Oc1cc(-n2ncc(Cl)c(Cl)c2=O)ncn1`, the cell count was 330 cells.

Take `CCN1CC=C2C(C1)C(c1ccc(Cl)s1)C(C#N)=C(N)C2(C#N)C#N` (configuration not stated): the cell count was found to be 1070 cells. Compound `CC(=O)c1c(C)[nH]c(-c2ccccc2)nc1=S` gave a cell count of 1410 cells.

Regarding `CCCCCCCn1c2c(c(=N)c3c1CCC3)CCCC2`, the cell count was 175 cells. Then `CCOC(=O)CC1C(=O)NCCN1S(=O)(=O)c1ccc(Cl)cc1Cl` (configuration not stated), with 1350 cells; and `CC1CCC(C(C)C)C(OC(=O)Cn2c(-c3ccccc3)[n+](C)c3ccccc32)C1` (configuration not stated), with 478 cells. To `COc1cccc(/C=N/NC(=O)c2oc3nc(-c4ccccc4)cc(-c4ccco4)c3c2N)c1` belongs 830 cells; to `CC(C)c1ccc(NC(=O)CSc2nc3c(c(=O)[nH]2)CCC3)cc1`, 432 cells; to `COc1ccc(OC)c(S(=O)(=O)N2CCCCC2C(=O)O)c1` (configuration not stated), 455 cells. For the compound `Cc1ccc(C(C)C)c(OCc2ccc(C(=O)N/N=C/c3cccc(O)c3O)cc2)c1`, the cell count is 322 cells. To `CCN(CC)c1ccc2cc(S(=O)(=O)c3ccc(Cl)cc3)c(=O)oc2c1` belongs 1190 cells; to `CCOc1ccc(NC(=O)C2CCC(C)(C(=O)O)C2(C)C)cc1` (configuration not stated), 906 cells; to `COC(=O)c1ccc2c(c1)C(C)(C)C(/C=C/c1ccc(OC)c(OC)c1OC)=[N+]2C`, 310 cells. `Cc1cc(C)n(-c2nc(N(c3ccccc3)c3ccccc3)nc(-n3nc(C)cc3C)n2)n1` returned a cell count of 457 cells. The compound `CCCn1c(C)cc(/C=C(\C#N)C(=O)OCC(=O)NC(=O)NC(C)(C)C)c1C` gave a cell count of 484 cells. As for `CCOc1ccc(-c2c(C#N)c(N)nc3sc(C(=O)c4ccccc4)c(N)c23)cc1`, the cell count worked out at 1020 cells. Compound `COc1cccc2sc(NNC(=O)C3=COCCO3)nc12` displayed a cell count of 1250 cells.

Turning to `O=C(CCl)Nc1ccc(Sc2ccc(NC(=O)CCl)cc2)cc1`, the cell count came to 306 cells. As to `O=C(Nc1cccc(-c2csc(Nc3cccc(C(F)(F)F)c3)n2)c1)c1cc([N+](=O)[O-])cc(C(F)(F)F)c1`, the cell count was 434 cells.

Compound `Cc1ccc(-n2c(-c3ccc(Br)cc3)c[n+]3c2CCc2ccc4cccnc4c2-3)cc1` returned a cell count of 98 cells. Regarding `Cc1cccc(-c2ncc(CN3CCCC(CO)(Cc4ccccc4C)C3)cn2)c1` (configuration not stated), the cell count came out at 1480 cells.

Take `CN1CC=C2C(C#N)=C(N)C(C#N)(C#N)C(c3ccsc3)C2C1` (configuration not stated): the cell count was 1240 cells. Then `O=C(OCn1ncc(Br)c(Br)c1=O)c1c(F)cccc1F`, with 319 cells. Then `CN1/C(=C\C(=O)c2cncc(Br)c2)C(C)(C)c2ccccc21`, with 395 cells; and `CC(C)(c1ccccc1)c1ccc(OCC(O)CNC2CCN(Cc3ccccc3)CC2)cc1` (configuration not stated), with 330 cells. As to `COc1ccc(/C=C(\C#N)C(=O)OCC(=O)Nc2c(C)cccc2C(C)C)cc1`, the cell count came to 1090 cells. In turn, `CCCc1n[nH]c2c1C(=O)C(C(=O)OC)C(C)(C)C2` (configuration not stated) registered a cell count of 1240 cells. Turning to `COc1ccc(N=c2scc(-c3ccc(S(=O)(=O)N4CCOCC4)cc3)n2CCCO)cc1`, the cell count is 384 cells.

Consider `CCS(=O)(=O)c1ccc2oc(SCC(=O)NC3CCCC(C)C3C)nc2c1` (configuration not stated), for which the cell count was determined as 771 cells. Consider `Cc1ccc(NC2=C(Cl)C(=O)c3ccccc3C2=O)cc1`, for which the cell count stood at 356 cells.

Turning to `CC1=CC(=O)C(C(C)C)=C/C1=N/OS(=O)(=O)c1ccccc1`, the cell count stood at 230 cells. Then `Cc1nc(C)c(C(=O)N/N=C/c2cc(Br)ccc2O)s1`, with 348 cells; and `O=[N+]([O-])c1ccc(-c2ccc(/C=N/Nc3nc(NCc4ccccc4)nc(N4CCOCC4)n3)o2)cc1`, with 549 cells. Take `CC[N+](CC)(CC#Cc1ccccc1)CC#Cc1ccccc1`: the cell count was 424 cells.

`Fc1ccc2[nH]c3c(N4CCN(Cc5ccc6c(c5)OCO6)CC4)ncnc3c2c1` returned a cell count of 301 cells. Consider `COc1ccc(C(=O)OCCCN(C)C)cc1OC`, for which the cell count was found to be 431 cells. As to `O=C(CCl)N1c2ccccc2OCC1c1ccccc1` (configuration not stated), the cell count amounted to 394 cells. On to `COc1ccc(S(=O)(=O)N2CCN(c3cc(-c4ccccc4)nc4ncnn34)CC2)cc1`, for which the cell count worked out at 330 cells.

In the case of `FC(F)Oc1ccc(-c2c[n+]3c(n2-c2ccccc2)CCCCC3)cc1`, the cell count turned out to be 405 cells. Regarding `O=C(CCl)Nc1cccc(-c2cnc3ccccc3n2)c1`, the cell count stood at 416 cells.

In turn, `Cc1ccc(C)c(OCC(O)CN2CCC(CN3C(=O)c4cccc5cccc(c45)C3=O)CC2)c1` (configuration not stated) had a cell count of 484 cells. As for `Cc1ccc(S(=O)(=O)Nc2ccc3nc(N)sc3c2)cc1`, the cell count was 326 cells. Regarding `Cn1c2c(c(=O)n(C)c1=O)C(C(F)(F)F)(C(F)(F)F)N=C(c1ccc(Cl)cc1)N2`, the cell count was 260 cells. `CCCCOc1ccc(Br)cc1CSC(=N)N` yielded a cell count of 486 cells. `Cc1cc(-n2c(C)cc(C(=O)CSc3ncnc4ccccc34)c2C)no1` returned a cell count of 391 cells. `COc1ccc(-n2c(-c3ccc(Cl)cc3)c[n+]3c2CCc2ccccc2-3)cc1` yielded a cell count of 356 cells. For `O=C(C1=NN(c2ccccc2)C2C(=O)N(c3cccc(Cl)c3)C(=O)C12)c1ccccc1` (configuration not stated), the cell count worked out at 1550 cells. For `O=S(=O)(c1ccccc1)c1nc(-c2ccco2)oc1NCc1cccnc1`, the cell count is 358 cells. To `COc1ccc(-c2cc3nc(C)cc(N4CC(C)CC(C)C4)n3n2)cc1` (configuration not stated) belongs 460 cells.
